# The supplement of paper PMC11417369
# ± gives the standard deviation of the averaged measurements. Some of the results follow.
# Tested on: PfAP2-G AP2 domain (GST-tagged)
# Assay: gcPBM binding intensity (ln(normalized median fluorescence intensity)); higher = stronger DNA binding
# Method in brief: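 Binding intensity values are the highest Masliner-normalised natural-log median intensity among replicate spots of either probe orientation. The binding step lasted 1 h in 1× PBS with 1% milk, 0.2 mg/ml BSA, 0.5% salmon testes DNA and 0.03% Triton X-100, using GST-tagged P. falciparum DNA-binding domains expressed in E. coli on an Agilent 4 × 180k array of primer-extended double-stranded 36-bp intergenic genomic probes plus negative controls. Alexa488 anti-GST antibody and a 488 nm scan detected bound protein.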
row,Sequence,gcPBM binding intensity (ln)
1,GTATATATATAAGAAGAAATATATAAATAAAATATA [CACACA_negctrl_site503],9.71 ± 0.2
2,TACAATCCATATTGTTGTACATTTATAAAATTTACA [XGTACX_site3053],11.2 ± 0.76
3,CAATGGTACATACATACACACACACTAATAAAAAAA [CACACA_site8450],10.8 ± 0.69
4,AGCACGCACAGACACACACACATATTTATATTTATA [CACACA_site6291],10.3 ± 0.28
5,TAATATAGGGGTGTTCAAATAAATTTTGTTATTTTT [CACACA_negctrl_site1203],10.3 ± 0.16
6,AAAAAATTTTAATATGCATGTAATTTTGCTTTTTCA [TGCATGCA_site1044],9.79 ± 0.14
7,AAATGAATATAAAATATACACACTTATATATTGAAT [CACACA_site202],9.71 ± 0.12
8,AAATTACCCTTGTGTACACATATATTATCTGTATTA [CACACA_site4514],12 ± 1.4
9,ACCTATTTCAAACACACACACACACCCACAAACATA [CACACA_site977],10.4 ± 0.4
10,ACGAATATAGGATGTTTGCACTGTACCAATAAATGA [GTGCAC_site9808],11 ± 0.72
11,TTCTTAATACAAATATGTACATATATATATATATAT [XGTACX_site757],11.1 ± 0.61
12,AATAGAAAAAAAAAATGTACAAAATGTTTATAAAAA [XGTACX_site4635],10.7 ± 0.28
13,TCATTTTAAGGAAAAAGTACAAAATAATATGTTCCT [XGTACX_site1903],11 ± 0.65
14,GATGTGTAAATAAGGATATATAACAATCAACAAAAC [XGTACX_negctrl_site494],10.2 ± 0.11
15,TGAATATGTAAATGCACACCAAAAAAAAAAAAAAAA [CACACA_site3566],9.96 ± 0.58
16,CAATATAAAAGACACACACACAAACATATATTTATA [CACACA_site7697],10.01 ± 0.099
17,TATTGAAAGTGAATTATAACATTAAAAATATATATA [TGCATGCA_negctrl_site566],9.61 ± 0.15
18,ATAATGTAAAATAAATGTACGCAATATATAAAAAAT [XGTACX_site5747],11.5 ± 0.73
19,GAAGGAAATAAATCAACACACATATATTATAGATAT [CACACA_site7095],9.85 ± 0.071
20,TATCTTCATATATGGTGTACAGATTTTTTTTTTTTT [XGTACX_site5545],11.5 ± 0.84
21,ATAAAATTATTATATACATGCAAAATTAATATATTG [TGCATGCA_site507],9.835 ± 0.078
22,TGAATAAATAAACACACACACATATATATATCTGTA [CACACA_site4184],9.74 ± 0.028

row,Sequence,gcPBM binding intensity (ln)
1,AAAATAAAAAAAATGAATTAGTTAAATGAAAAATAA [CACACA_negctrl_site1294],9.56 ± 0.25
2,TTTCTTTTTTTGGGCACACAAAATTTTCTCATTTTA [CACACA_site68],10.6 ± 0.14
3,ATTATATAATAATGCATGCACCTTATTTTCATTTCA [GTGCAC_site9922],9.915 ± 0.021
4,TTTTTATTGTTATACTTATATTATTTTATGATTAAA [XGTACX_negctrl_site262],9.87 ± 0.13
5,ATAAAAATCAAAAAAAATACATAATAGTAATAATAA [GTGCAC_negctrl_site481],9.695 ± 0.092
6,GTTATACATTTGAAAAGTACTCATGATTTTTTTTTT [XGTACX_site8177],11.2 ± 0.7
7,AATATTCAATATAAAGTGCATTATTGTGCCCCTAAT,10.7 ± 0.51
8,AAAATTAAAAAAATATGTACTTATGGGTAACATCAT [XGTACX_site5548],11.3 ± 0.82
9,CTGATATATTATTTATCTGAATATATTAATATGTAT [GTGCAC_negctrl_site82],9.635 ± 0.021
10,AAATAGAAAAAATATACACACACTTATTAAATAAAA [CACACA_site3313],9.945 ± 0.049
11,AAATAATAAAGTATAACACACATATTTATTTATATA [CACACA_site7822],9.695 ± 0.021
12,TATGCAAATTAATAATGTACGAAATATTTATAATTT [XGTACX_site2324],10.7 ± 0.47
13,AAAAGGAACGGACACACACACATATATATATATATA [CACACA_site5894],10.9 ± 0.79
14,TAATATAATCTGAGTGCACACAAATAAATAAACATA [CACACA_site8032],10.4 ± 0.3
15,AGGTTATATATGAACAAAAATAAAATATTCATAGGC [TGCATGCA_negctrl_site46],9.885 ± 0.064
16,AATAAATTAGAAGGATGTACTTTGTTTAATATAGAG [XGTACX_site1943],11 ± 0.57
17,ATATGTAAAATGAAGATACATACATACATACATACA [CACACA_negctrl_site715],10.5 ± 0.26
18,TATTTTATATTATCATGTACAAAAAAAAAGAAAAGA [XGTACX_site5379],10.9 ± 0.43
19,ATAAATAATTAGAATTGTACAAAAATTATATATATG [XGTACX_site5107],10.9 ± 0.56
20,TATATAAAAAGTAATTGTACATATATATATATATAT [XGTACX_site7953],10.9 ± 0.68
21,ATATATTTATATAAATGTACACGTGAATATATAATA [XGTACX_site1166],11.3 ± 0.88
22,TTTATATTCTTTTTTTAACACACAAAAAAAATAAAA [CACACA_site8574],10.2 ± 0.44

row,Sequence,gcPBM binding intensity (ln)
1,TCTATTAATGAATATACACACATTATATATATATAT [CACACA_site5410],10.1 ± 0.15
2,ATGTTATAAAATATATGTACATATTTATATAAAATA [XGTACX_site5766],11.3 ± 0.71
3,ATATTATATATATGATGTACTAAATATATTATTATG [XGTACX_site1703],10.9 ± 0.59
4,AATTATACGAAATAAAACTTAATAGACAAAAAATTA [CACACA_negctrl_site1384],9.965 ± 0.021
5,GTAATTTAAATAACAAGTACTAATGTGGATAAGCAG [XGTACX_site1163],11.1 ± 0.56
6,ACATATGAATATTTTTGTACGTATATTGTTATTCTT [XGTACX_site4720],11.3 ± 0.49
7,AAAAAAAAAAAACACACACACACATACAAAATATAT [CACACA_site1448],9.81 ± 0.11
8,TTTTTTTTTATTATCATGCACACATTTTTTTTTTTT [CACACA_site2254],10 ± 0.14
9,GTATATTTAAATAAAAGTACGTAAAGATATATTTAA [XGTACX_site8087],11.2 ± 0.71
10,ATAATATGCAATATTACACACAATTCATCATTTTTT [CACACA_site7477],9.7 ± 0.18
11,TAGAAGCATCATTTTACACACATGCAAATGTAAACT [CACACA_site6973],10 ± 0.32
12,AACAAAATAAAACACACACACAAATGTACATATATA [CACACA_site2424],11.2 ± 0.57
13,TTTTGCGTAGCAACGAGGTTTTTAAAAATGTAACCA [GTGCAC_negctrl_site691],10.2 ± 0.17
14,ATTTTGTATTGACGCTGTACAAACATTAATATAATA [XGTACX_site2496],10.7 ± 0.4
15,AATAATAAAAAATACGCACACATGTAAACGTATGTT [CACACA_site3336],10.41 ± 0.099
16,GGCGATATAGAACTACGTACTTATACAAATTATAAT [XGTACX_site2307],11.2 ± 0.74
17,ACACATAAATGTATATATATATAAATATATGTATGT [CACACA_negctrl_site1532],9.6 ± 0.11
18,CCTTTTAAGAGTTGCACACGTACAAAAAAAAAAAAA [CACACA_site3492],11.3 ± 1.1
19,TGTATTAATAAAAATACACACATCATATTATATAAA [CACACA_site3534],9.97 ± 0.28
20,TATATATATATATATAAGCTTATAATAAAACAAAAA [XGTACX_negctrl_site568],10.1 ± 0.52
21,ATAGCAATAATGGAAAGTACAAAAAAACTTGTTATA [XGTACX_site8518],10.8 ± 0.38
22,TATATATGTATATGTGTGCACCTTATTTCTTTTATT [GTGCAC_site9513],10.4 ± 0.35

row,Sequence,gcPBM binding intensity (ln)
1,TATGTATTATCAAAAAGTACTAAAAAAAAATAATAA [XGTACX_site4703],11.2 ± 0.67
2,TTATAATTTTTGAGCACACACAAGCATATATATATA [CACACA_site1798],10.4 ± 0.45
3,AATCCTTACAGACACACACACACGAATAAATAAAAA [CACACA_site480],10.4 ± 0.42
4,ATAAATGTTATGCATACACACTTTATACCTATTTAA [CACACA_site5967],9.975 ± 0.035
5,TTATAATATATTACAAGTTCATTCATATAATATGTT [CACACA_negctrl_site1695],9.92 ± 0.11
6,ATCTCTTAAATTTTACGTACTTATTTTATCTTCTTA [XGTACX_site8877],11.2 ± 0.67
7,TGAAAAAAAAAATGCACACGCATACATATAATATGT [CACACA_site641],10.08 ± 0.085
8,AAACATAAATATGAGAGTACAAAAAATATTATGAAT [XGTACX_site151],11 ± 0.6
9,TATTTTTATATATATACACACTTACAGATATATATT [CACACA_site5905],10 ± 0.042
10,AATAAATACATACATACATGCATACATATATCTCAA [TGCATGCA_site1040],10.03 ± 0.021
11,AAAAATAAAATATATATATATATATATATATATATA [CACACA_negctrl_site58],9.82 ± 0.66
12,TATATATATTTTAAATGTACTTATAAATTACCACTT [XGTACX_site5673],11.3 ± 0.8
13,AGAAAGGATATAAGCGTAGCTATATCATAAAAAATG [GTGCAC_negctrl_site332],9.82 ± 0.071
14,AAATAAAATTTTTGTTGTACTTATTTTTAGTATACT [XGTACX_site4254],11.5 ± 0.81
15,AATATTTACAGACATGCGCACACATAAATAAATAAT [CACACA_site8760],10.5 ± 0.29
16,AAAGGGGAGATATGAACACACAAAAAAAAAATATAT [CACACA_site7378],10 ± 0.32
17,GTATATATATATTTATGTACTTACCTACATAATTAT [XGTACX_site4435],11.2 ± 0.73
18,GATATGATGAGATTGATATTCATAAGAGGATTAATG [GTGCAC_negctrl_site515],9.71 ± 0.18
19,TGTATGTATGTATTATTTGTTATTTTAATTTTTTTG [TGCATGCA_negctrl_site256],10.36 ± 0.085
20,TATAATAAAATATGTACACACATACACCCATATATA [CACACA_site4808],11.4 ± 0.88
21,ACAAGTAATTAAGAGTGTACATAACTATAAATCCAA [XGTACX_site5215],11.3 ± 0.79
